Results taken from PubChem BioAssay AID588855 (National Center for Advancing Translational Sciences (NCATS), 2011).
Values joined by “and” are separate entries in the source; they are usually repeats but may differ in a detail not shown here. Equal entries are not always repeated. About 5,000 (1.2%) of roughly 410,000 compounds were called active. The shares of active, inactive and inconclusive entries below differ from those in the screen. The call rests on the fitted dose curve; in most records, active means well fitted inhibition curve with a large enough effect; inconclusive means small, poorly fitted or top-dose-only effect; inactive means no such curve, though single readings can be large or run the other way. Where the call is inconclusive, the potency comes from a doubtful curve fit.

Experiment: qHTS for Inhibitors of TGF-b; further: nearly all actives have a fitted effect of over 65% in size
Conditions: HepG2 CAGA-GFP TGF-b/SMAD3 reporter, GFP fluorescence, 18 h, TGF-beta stimulated, 500 pg/mL final; series mostly up to 46.1 µM; activity, negative = inhibition: at the top concentration
How it was run: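 Inhibition was scored as loss of TGF-beta-induced (500 pg/mL final, 18 hours, 37 degrees C) GFP in HEPG2 cells carrying a CAGA-GFP reporter, in DMEM with 1% FBS. Well GFP was summed per cell; Activity was normalised to unstimulated and stimulated DMSO wells, then concentration-response fitting.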
On the % scale 0 is the no-effect control and ±100 the full control effect; potency means the concentration at half of the fitted maximal effect; tags describe the fitted curve by direction and shape.

**Q.** With COc1ccc(N(Cc2cc3ccc(C)cc3[nH]c2=O)S(=O)(=O)c2ccccc2)cc1 as the compound, how does the Potency read?
**A.** inconclusive: 11.2 µM [inhibitor, partial curve, poor fit]

**Q.** With CN(Cc1ccccc1)CC(O)CN(C)Cc1ccccc1 as the compound, how does the “activity, negative = inhibition” value read?
**A.** inactive: 0.127%

**Q.** With CCOc1ccccc1NC(=O)CSc1ccc(-c2ccco2)nn1 as the compound, how does the Potency read?
**A.** inconclusive: 20 µM [inhibitor, partial curve, poor fit]

**Q.** Which Potency does the source give for Oc1ccc(N=Nc2n[nH]c(-c3ccc(Br)cc3)n2)cc1 here?
**A.** inconclusive: 20 µM [inhibitor, single point]

**Q.** For COc1ccc(/C=C/C(=O)Oc2cc(C)[nH]c(=O)c2[N+](=O)[O-])cc1OC, which “activity, negative = inhibition” value is on record?
**A.** inactive: -3.54%

**Q.** With CS(=O)(=O)Nc1ccc(-c2nc3ccccc3s2)cc1 as the compound, how does the Potency read?
**A.** inconclusive: 1.12 µM [inhibitor, full curve, poor fit]

**Q.** With COc1cccc(NC(=S)N(CCc2c(C)[nH]c3ccccc23)Cc2cccs2)c1 as the compound, how does the Potency read?
**A.** inconclusive: 17.8 µM [inhibitor, partial curve, poor fit]

**Q.** For CC(=O)Nc1cccc(Nc2cnccn2)c1, which Potency is on record?
**A.** inconclusive: 35.5 µM [inhibitor, single point]

**Q.** Which Potency does the source give for O=C(CCS(=O)(=O)Cc1ccccc1F)N1CCc2ccccc2C1 here?
**A.** inconclusive: 14.1 µM [inhibitor, partial curve, poor fit]

**Q.** With COc1cccc(NC(=O)Nc2ccc3snnc3c2)c1 as the compound, how does the Potency read?
**A.** inconclusive: 35.5 µM [inhibitor, single point]

**Q.** Which Potency does the source give for CC(=O)Nc1cccc(-c2cc(NC=O)c3ncc(-c4ccc(C(C)=O)cc4)n3c2)c1 here?
**A.** inconclusive: 10 µM [inhibitor, partial curve]

**Q.** With Cc1cccc(C(=O)N2CCN(c3ccccn3)CC2)c1 as the compound, how does the “activity, negative = inhibition” value read?
**A.** inactive: 0.579%

**Q.** Which Potency does the source give for CC1(C(=O)NCc2ccccc2Br)CCN1Cc1ccc2ccccc2c1 (centres undefined) here?
**A.** inconclusive: 25.1 µM [inhibitor, single point]

**Q.** For Cc1ccc(S(=O)(=O)N(C)C)cc1NC(=O)c1ccccc1Br, which Potency is on record?
**A.** inconclusive: 14.1 µM [inhibitor, single point]

**Q.** With CCOCCCNC(=O)c1ccccc1SC as the compound, how does the Potency read?
**A.** inconclusive: 6.31 µM [inhibitor, single point]

**Q.** For CCOc1ccccc1N(CC(=O)N/N=C/c1cc(Br)ccc1OC)S(C)(=O)=O, which Potency is on record?
**A.** inconclusive: 35.5 µM [inhibitor, single point]

**Q.** For CCC(=O)N1CCc2cc(S(=O)(=O)NC(Cc3ccccc3)C(=O)NCc3ccccc3OC)ccc21 (centres undefined), which Potency is on record?
**A.** inconclusive: 15.8 µM [inhibitor, single point]

**Q.** For CC(C)(C)c1ccc(C(=O)Nc2ccc(NC(=O)c3ccc(Cl)c(Cl)c3)cc2)cc1, which “activity, negative = inhibition” value is on record?
**A.** inactive: -22.9%

**Q.** Which “activity, negative = inhibition” value does the source give for CCOc1ccc(S(=O)(=O)Nc2cccc(C(=O)NCCCN3CCCC3=O)c2)cc1 here?
**A.** inactive: -0.756%

**Q.** With Cc1noc(C)c1CSCC(=O)Nc1cc(S(=O)(=O)N2CCCCC2)ccc1OC(C)C as the compound, how does the Potency read?
**A.** inconclusive: 1.58 µM [inhibitor, partial curve]

**Q.** With CNC(=S)N/N=C/c1cn(Cc2ccc(F)cc2)c2ccccc12 as the compound, how does the Potency read?
**A.** inconclusive: 14.1 µM [inhibitor, single point]

**Q.** Which Potency does the source give for CC(=O)Oc1ccc(Cn2c(C)c(C(=O)NCc3cccc(C(F)(F)F)c3)sc2=O)cc1 here?
**A.** inconclusive: 35.5 µM [inhibitor, single point]

**Q.** For C[C@H]1CN([C@@H](C)CO)S(=O)(=O)c2ccc(C#CC3(O)CCCC3)cc2O[C@@H]1CN(C)C(=O)Cc1cccnc1, which “activity, negative = inhibition” value is on record?
**A.** inactive: 2.38%

**Q.** Which Potency does the source give for Cc1cccc2c1CC(C)(C)N=C2C1=C(O)CC(C)(C)CC1=O here?
**A.** inconclusive: 6.31 µM [inhibitor, single point]

**Q.** With COc1cccc(C2CC(=O)N3CN(c4ccccc4F)CSC3=C2C#N)c1 (centres undefined) as the compound, how does the “activity, negative = inhibition” value read?
**A.** inactive: -18.8%

**Q.** Which Potency does the source give for COc1ccccc1NS(=O)(=O)c1cc(NC(=S)Nc2cc(C)cc(C)c2)ccc1Cl here?
**A.** inconclusive: 22.4 µM [inhibitor, single point]

**Q.** With O=C(NC(=S)N(CCCCO)C1CCCCC1)c1sc2ccccc2c1Cl as the compound, how does the Potency read?
**A.** inconclusive: 8.91 µM [inhibitor, single point]

**Q.** For CCCCNC(=O)CCn1nc(-c2ccc(Cl)cc2)c2ccccc2c1=O, which Potency is on record?
**A.** inconclusive: 17.8 µM [inhibitor, single point] and inconclusive: 22.4 µM [inhibitor, single point]

**Q.** With CCCCOc1ccc(CNC(=O)c2cnc3sc(N4CCCCCC4)nn3c2=O)cc1 as the compound, how does the “activity, negative = inhibition” value read?
**A.** inactive: -32.4%

**Q.** With O=C(c1ccccc1)n1c2ccccc2c(=O)n1-c1ccccc1CCl as the compound, how does the “activity, negative = inhibition” value read?
**A.** inactive: -22.7%

**Q.** With Cc1cccc(C(=O)n2nc(-c3cccnc3)nc2NCc2ccc(F)cc2)c1 as the compound, how does the Potency read?
**A.** inconclusive: 35.5 µM [inhibitor, single point]

**Q.** With NS(=O)(=O)c1ccc(NC(=S)Nc2nn(Cc3ccc(Cl)cc3Cl)cc2Cl)cc1 as the compound, how does the Potency read?
**A.** inconclusive: 17.8 µM [inhibitor, single point]

**Q.** With CCO[C@H]1OC(C(=O)N2CCN(Cc3ccc4c(c3)OCO4)CC2)=C[C@@H](c2cn(C(C)=O)c3ccccc23)[C@@H]1CCCO as the compound, how does the Potency read?
**A.** inconclusive: 3.55 µM [inhibitor, single point]

**Q.** For COc1ccc(N2CCN(CCS(=O)(=O)c3cc(Cl)ccc3Cl)CC2)cc1, which Potency is on record?
**A.** inconclusive: 11.2 µM [inhibitor, partial curve, poor fit]

**Q.** For CCO[C@H]1OC(C(=O)Nc2ccccc2)=C[C@@H](c2csc3ccccc23)[C@@H]1CCCO, which Potency is on record?
**A.** inconclusive: 11.2 µM [inhibitor, partial curve, poor fit]

**Q.** Which Potency does the source give for CCN(CC)C(=O)c1ccc2c(c1)N(Cc1ccccc1F)C(=O)c1ccccc1S2=O (centres undefined) here?
**A.** inconclusive: 35.5 µM [inhibitor, single point]

**Q.** For CCN(CC)S(=O)(=O)c1ccc(Cc2ncc(C(F)(F)F)cc2Cl)s1, which Potency is on record?
**A.** inconclusive: 12.6 µM [inhibitor, single point]

**Q.** For Cn1nc([N+](=O)[O-])nc1Sc1cccc2cccnc12, which Potency is on record?
**A.** inconclusive: 6.31 µM [inhibitor, partial curve, poor fit]

**Q.** With CCOc1ccc2nc(N3CCCC(C(=O)Nc4ccc(CC)cc4)C3)sc2c1 (centres undefined) as the compound, how does the “activity, negative = inhibition” value read?
**A.** inactive: -17.7%

**Q.** Which Potency does the source give for CCCCC(=O)Nc1ccc(C)c(S(=O)(=O)N2CCCCCC2)c1 here?
**A.** inconclusive: 35.5 µM [inhibitor, single point]

**Q.** With COC(=O)C/C=C/N(Cc1ccccc1OC)S(=O)(=O)CCl as the compound, how does the Potency read?
**A.** inconclusive: 35.5 µM [inhibitor, single point]

**Q.** Which “activity, negative = inhibition” value does the source give for CN(C)CCNCc1ccccc1OC1CCCC1 here?
**A.** inactive: -12.8%

**Q.** With COc1ccc(CCN2C(=O)CSC2c2ccc(OC)c(OC)c2)cc1OC (centres undefined) as the compound, how does the “activity, negative = inhibition” value read?
**A.** inactive: -4.17%

**Q.** With COC(=O)c1cnc(Oc2ccc(NC(=O)NC(=O)c3c(OC)cccc3OC)cc2)cc1C(F)(F)F as the compound, how does the Potency read?
**A.** inconclusive: 3.98 µM [inhibitor, full curve]

**Q.** With C/C=C(\C)C(=O)OC1[C@H](OC(C)=O)C2(CO)C(CC1(C)C)C1=CCC3C4(C)CCC(O[C@@H]5O[C@H](C(=O)O)[C@@H](O[C@@H]6O[C@H](CO)[C@@H](O)[C@H](O)[C@H]6O)[C@H](O)[C@H]5O[C@H]5O[C@H](CO)[C@@H](O)[C@H](O)[C@H]5O)[C@](C)(CO)C4CCC3(C)[C@]1(C)C[C@H]2O (some centres undefined) as the compound, how does the Potency read?
**A.** active: 4.47 µM

**Q.** With O=C(COc1cccc(F)c1)N[C@@H](Cc1ccccc1)c1nc2ccccc2[nH]1 as the compound, how does the Potency read?
**A.** inconclusive: 12.6 µM [inhibitor, partial curve]

**Q.** Which Potency does the source give for CCC(Oc1ccccc1)C(=O)Nc1cc(-c2ccccc2F)nn1-c1ccccc1 (centres undefined) here?
**A.** inconclusive: 17.8 µM [inhibitor, single point]

**Q.** For O=c1[nH]c2cc([N+](=O)[O-])ccc2c2ccc([N+](=O)[O-])cc12, which Potency is on record?
**A.** inconclusive: 10 µM [inhibitor, single point]

**Q.** For CCN1CCN(c2nc3c(S(=O)(=O)c4ccc(C)cc4)nnn3c3ccsc23)CC1, which “activity, negative = inhibition” value is on record?
**A.** inactive: 32.7%

**Q.** Which Potency does the source give for CC1Sc2ccc(S(=O)(=O)CCC(=O)N3CCN(c4ccccc4F)CC3)cc2NC1=O (centres undefined) here?
**A.** inconclusive: 35.5 µM [inhibitor, single point]

**Q.** Which Potency does the source give for CCOC(=O)C1=CN(Cc2ccco2)S(=O)(=O)N(CC)C1c1ccc(C(F)(F)F)cc1 (centres undefined) here?
**A.** inconclusive: 22.4 µM [inhibitor, single point]

**Q.** For CCCC(=O)OCC(=O)c1[nH]c(C)c(C(C)=O)c1C, which “activity, negative = inhibition” value is on record?
**A.** inactive: -20.8%

**Q.** With O=S(=O)(c1c(F)cccc1F)N(CCc1ccc(F)cc1)C[C@@H](O)COCc1ccccc1 as the compound, how does the Potency read?
**A.** inconclusive: 22.4 µM [inhibitor, single point]

**Q.** With CCOc1cc(CNCCO)cc(Br)c1OCc1ccc(Cl)cc1 as the compound, how does the Potency read?
**A.** inconclusive: 22.4 µM [inhibitor, single point]

**Q.** Which Potency does the source give for C=CCc1ccccc1OCc1nc2ccc(C)cc2[nH]1 here?
**A.** inconclusive: 20 µM [inhibitor, single point]

**Q.** For COc1ccc(-n2ncc(C(=O)N3CCN(C4CCCCC4)CC3)c2C2CCN(C(=O)OC(C)(C)C)CC2)cc1, which Potency is on record?
**A.** inconclusive: 1.41 µM [inhibitor, full curve]

**Q.** For Cc1cc(N/N=C/c2ccccc2)nc(N2CCOCC2)n1, which “activity, negative = inhibition” value is on record?
**A.** inactive: 6.62%

**Q.** With Cn1c(=O)n(CC(=O)O)c(=O)c2c1nc1n2CCCN1c1ccc(Cl)cc1 as the compound, how does the “activity, negative = inhibition” value read?
**A.** inactive: 2.6%

**Q.** Which “activity, negative = inhibition” value does the source give for C[C@]12C(=O)N(c3ccc(Cl)cc3)C(=O)N1[C@@H]1c3ccccc3OC[C@@H]1[C@H]2c1ccccc1 here?
**A.** inactive: -1.94%

**Q.** With Cc1ccc(C(C)C)c(OCCNCCc2ccccc2)c1 as the compound, how does the Potency read?
**A.** inconclusive: 35.5 µM [inhibitor, single point]

**Q.** With COC(=O)c1cccc(NC(=O)CC2C(=O)NCCN2C(=O)Nc2cc(C)cc(C)c2)c1 (centres undefined) as the compound, how does the “activity, negative = inhibition” value read?
**A.** inactive: -1.6%

**Q.** With Cc1csc2nc(COc3ccc(NC(=O)C(C)C)cc3)cc(=O)n12 as the compound, how does the “activity, negative = inhibition” value read?
**A.** inactive: -6.49%

**Q.** For Cc1csc2c(NC3CCN(Cc4ccccc4)CC3)ncnc12, which “activity, negative = inhibition” value is on record?
**A.** inactive: -2.39%

**Q.** With O=C(COc1cccc2c1CCN(Cc1ccc(Br)cc1)C2=O)N1CCOCC1 as the compound, how does the “activity, negative = inhibition” value read?
**A.** inactive: -27.2%
